B1: chr5:43486917:43487111:-|CDS|ENSG00000172244|control|control|control (ssRNA)
RNA: GGGAGUUCUACAGUCCGACGAUCUUAUAAACCAGGAUCUUCAGAAACCUUGCUAGGAGAAGUUAAUGAAAAUAGAGUAUCAAUAGCAUUGAAAAAAACCUCUGAAAUCCUUCACGAUAUUGACUGUCUUCUAUCAAACUCUAACAACAGAGGAUUGAGCAUCA
B2: chr16:31131432:31132008:-|three_prime_utr|ENSG00000052344|control|control|control (ssRNA)
RNA: GGGAGUUCUACAGUCCGACGAUCCCAUUCUUCUGGGUGUGCUUUUUGGGACCAUCACUGAGAGUCAGGAGUUUUACUGCCUGUAGCAAUGGCCAGAGCCUCUGGCCCCUCACCCACCAUGGACCAGCCCAUUGGCCGAGCUCCCAACAGAGGAUUGAGCAUCA
B3: chr7:56063203:56063317:+|3pUTR|ENSG00000146731|unk|FALSE|unique (ssRNA)
RNA: GGGAGUUCUACAGUCCGACGAUCCCCAUAUGAAAAAAGGAGAGAACACUGGCAUCUGUUGAAAUUUGGAAGUUCUGAAAUUAUAGUAUUUUUAAAAAUUGCACUGAAGUGUAUACACAUAAAGCAGGUCUUUUAUCCAGUGAACAACAGAGGAUUGAGCAUCA
B4: chr10:121967677:121967791:-|CDS|ENSG00000107672|unk|total|mutant (ssRNA)
RNA: GGGAGUUCUACAGUCCGACGAUCAAAUCCGCCCGAAGCUGAAGAACUCAUCCGUGAUGAAGACCGUCCUGAUUUUGAAUUCACCGUCUAUGACUCCUGGAAGAUAACAGGCAGAACAGCAGAAAACACCUUUAAUAAAACCCACAACAGAGGAUUGAGCAUCA
B5: chr8:88032264:88032379:-|3pUTR|ENSG00000156103|unk|total|mutant (ssRNA)
RNA: GGGAGUUCUACAGUCCGACGAUCACUCCUUAUAAUGUUGCGUCAUUAAAGGUCAAGGGGUCAUGCUAUUAAUCUCAUUGCUACCGACCAUUAACAUGACUGAACUUUUCCACAAAGUACUUAUGUUUACAAUGCUAUAACCCUCAACAGAGGAUUGAGCAUCA
B6: chr1:232398519:232398625:-|3pUTR|ENSG00000116991|unk|total|mutant (ssRNA)
RNA: GGGAGUUCUACAGUCCGACGAUCACAGCCGUUUUAUUUCCACAGCCACAUUACCACCGCAAUAAGAAAGGAGGCACCGUACACCGUUGGAAAAGCUUUGUGGGGGGAUUAAAAAAAAAAAAAAGCACUGUUGUGUUUAACACUCAACAGAGGAUUGAGCAUCA
B7: ENSG00000107863:be:win_6351|3pUTR|ENSG00000107863|bound_else_gene|NA|bound_elsewhere_windowed (ssRNA)
RNA: GGGAGUUCUACAGUCCGACGAUCGAACUUCCAUUCUUUAGUCAUUCCAGGUGGAUCUGAGUUUUAUAUUCAAACUUUUAAUACAGUUUUUGAGUUUUGUGUGACUUGAAUUUUUAAUCUUUCUGUAAAAUACGUAACUUAAAUCAACAGAGGAUUGAGCAUCA
B8: chr11:134151495:134151596:+|3pUTR|ENSG00000166086|unk|total|mutant (ssRNA)
RNA: GGGAGUUCUACAGUCCGACGAUCCCGUGCCAUGGGAACCAGGUCUGAAAAAGCCGAGAGAAGUGAAAGCCGAGUCUGGGAAGCCGCUGCCUAUAACUGAGACCCGACGGAAAAGGAAUACUCGUGUAUUUUAAGAUAUGAAUGCAACAGAGGAUUGAGCAUCA
B9: chr12:39553730:39553837:-|3pUTR|ENSG00000173208|unk|total|mutant (ssRNA)
RNA: GGGAGUUCUACAGUCCGACGAUCGAAGUAUGUUAAGCUAAGCACAGAGAAAAAAAGGCAGCAAGACAUGUUUUAUAAGAUUUCCGCAUUAAGGAAGUAUAUGAUCUGACUUUUCAGAAGAAAAUAAACAAAUGCAUUAUGUAACAACAGAGGAUUGAGCAUCA
B10: chr7:127373434:127373542:-|CDS|ENSG00000048405|unk|total|mutant (ssRNA)
RNA: GGGAGUUCUACAGUCCGACGAUCAAAACACCGUGAUUCAAAACAUGAUGGCACUUCUAACUCUCCCCGUAAAAAGUAUGAAGCCGCUGACGUCGGUAUUGAAGUAAAAGUCACAAAAAACUUUUCUCUUCACAGAUGCAAUAACAACAGAGGAUUGAGCAUCA
B11: chr1:114568131:114568247:-|CDS|ENSG00000116752|unk|FALSE|bound_elsewhere (ssRNA)
RNA: GGGAGUUCUACAGUCCGACGAUCUUCUAGUUGGGUAUCCCUGGUCAGUAAGAAUUAUGAGAUUGAACGGACUAUUGUUCAGCUAGAAAAUGAAAUCUAUCAAAUUAAGCAGCAACAUGGAGAGGCAAACAAAGAAAACAUCCGCAACAGAGGAUUGAGCAUCA
B12: chr19:48382969:48383148:-|3pUTR|ENSG00000105438|msi1_unk|FALSE|overlapping (ssRNA)
RNA: GGGAGUUCUACAGUCCGACGAUCACUUGGGCUGUUUGUAGUUUUUUGCCUUUUAGACAAGAAAAAAAAAUCUUUCCACUCUUUAGUUUUUGAUUCUGAUGACUCGUUUUUCUUCUACUCUGUGGCCCCAAUUUUUAUAAAGUGCAACAGAGGAUUGAGCAUCA
B13: chr1:90712314:90712624:-|CDS|ENSG00000143032|control|control|control (ssRNA)
RNA: GGGAGUUCUACAGUCCGACGAUCUCCAGCACCCCAUCCCCAGCUGCAGCGGCCCCUGGUGCCCCGUGUGCUCAUCCACGGCCUAGGGCCUGGGGGACAGCCAGCCCUUAAUCCAUUGUCCAGCCCCAUCCCAGGCACCCCACACAACAGAGGAUUGAGCAUCA
B14: chr7:20410151:20410448:+|3pUTR|ENSG00000105855|msi1|FALSE|unique (ssRNA)
RNA: GGGAGUUCUACAGUCCGACGAUCACUAGUGUCGUUGUAGCACUUUACUGUAAUAUAUAACUUAUUUAGAUCAGCAUAGAAUGUAGAUCCUCUGAAGAGCACUGAUUACACUUUACAGGUACCUGUUAUCCCUACGCUUCCCAGCAACAGAGGAUUGAGCAUCA

Some of the results follow.

The target of this assay is MSI1 full-length (mouse, UniProt Q61474 1-362). As to the kind of experiment: nsRBNS (natural sequence RNA bind-n-seq); RBNS binding buffer (assumed for nsRBNS): 25 mM Tris pH 7.5, 150 mM KCl, 3 mM MgCl2, 0.01% Triton X-100, 500 ug/ml BSA, 20 U/ml SUPERase-In, 4 C; UNK is unkempt and MSI1 is Musashi-1; names of the RNAs are library labels; protein concentration not given here; high values mean tight binding.
Chain of UniProt Q61474 (Q61474 whole entry): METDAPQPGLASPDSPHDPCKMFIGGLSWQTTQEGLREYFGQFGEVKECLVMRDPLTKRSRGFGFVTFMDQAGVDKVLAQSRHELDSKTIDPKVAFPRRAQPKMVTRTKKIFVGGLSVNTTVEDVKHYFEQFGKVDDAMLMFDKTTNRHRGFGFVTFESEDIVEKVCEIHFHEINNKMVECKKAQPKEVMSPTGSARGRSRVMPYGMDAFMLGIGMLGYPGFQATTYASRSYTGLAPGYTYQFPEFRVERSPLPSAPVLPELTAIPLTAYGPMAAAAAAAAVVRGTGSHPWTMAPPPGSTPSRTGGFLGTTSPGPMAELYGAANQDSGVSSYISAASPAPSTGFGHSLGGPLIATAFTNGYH
The molecule B1 displayed a binding signal of 1.89 enrichment R.

In turn, B2 registered a binding signal of 0.442 enrichment R.

The molecule B3 yielded a binding signal of 1.36 enrichment R.

In the case of B4, the binding signal turned out to be 0.51 enrichment R. Take B5: the binding signal stood at 0.588 enrichment R. In the case of B6, the binding signal came out at 0.46 enrichment R. In turn, B7 yielded a binding signal of 4.05 enrichment R.

B8: the binding signal is 0.432 enrichment R. The molecule B9 registered a binding signal of 0.772 enrichment R. Molecule B10 registered a binding signal of 0.241 enrichment R. For B11, the binding signal is 0.71 enrichment R. B12 showed a binding signal of 5.44 enrichment R. Consider B13, for which the binding signal turned out to be 0.814 enrichment R. Turning to B14, the binding signal turned out to be 16.1 enrichment R.

Values taken from PMC12136788.
